Common to all, as to test: Primary Screen for Target Class Profiling of Small Molecule Inhibitors of Methyltransferases
For assay [1], the target named is Glycine N-methyltransferase (Homo sapiens) (UniProt Q14749). As to conditions: purified enzyme, MTase-Glo SAH luminescence; measured here: GNMT inhibition; at 40 µM; stronger effect = lower value. A digest of the protocol: (§1)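 Each enzyme was assayed with SAM and its substrate. SAH formation detected by MTase-Glo luminescence; single-point 40 uM screen[…].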

Assay [2] concerns the target Guanidinoacetate N-methyltransferase (Homo sapiens) (UniProt Q14353). Particulars: purified enzyme, MTase-Glo SAH luminescence; measured here: GAMT inhibition; at 40 µM; stronger effect = lower value. A digest of the protocol:
as §1

The target of assay [3] is Histamine N-methyltransferase (Homo sapiens) (UniProt P50135). Particulars: purified enzyme, MTase-Glo SAH luminescence; measured here: HNMT inhibition; at 40 µM; stronger effect = lower value. A digest of the protocol: as §1
Assay [4] has as its target Nicotinamide N-methyltransferase (Homo sapiens) (UniProt P40261). Particulars: purified enzyme, MTase-Glo SAH luminescence; measured here: NNMT inhibition; at 40 µM; stronger effect = lower value. Summed up:
as §1

Assay [5] addresses Phenylethanolamine N-methyltransferase (Homo sapiens) (UniProt P11086). Particulars: purified enzyme, MTase-Glo SAH luminescence; measured here: PNMT inhibition; at 40 µM; stronger effect = lower value. A digest of the protocol: as §1

The other results are listed elsewhere or left out. The main result of the screen is listed elsewhere. These columns were measured beside it and carry no call.

27 molecules from PubChem BioAssay AID1745853 (National Center for Advancing Translational Sciences (NCATS), 2022) can be followed below.
% is set by controls: 0 for no effect and ±100 for the full control effect.

With `CC(=O)O[C@H]1CC(C)(C)CC2[C@@]13[C@H](O)C[C@]1(C)[C@@]2(CCC2[C@@]4(C)CC[C@H](O[C@@H]5OC[C@H](O[C@@H]6O[C@H](CO)[C@@H](O)[C@H](O)[C@H]6O[C@@H]6OC[C@@H](O)[C@H](O)[C@H]6O)[C@H](O)[C@H]5O[C@@H]5O[C@H](CO)[C@@H](O)[C@H](O)[C@H]5O)C(C)(C)C4CC[C@]21C)O[C@@H]3O` (stereo not given in full), the activity change, negative = inhibition in assay [1] was 3.14%; in assay [2], 1.27%; in assay [3] it was 6.69%; in assay [4] it was -5.82%; in assay [5], 4.64%.

Regarding `CC(C)CCn1c(=O)c2ccc(C(=O)NCC(C)C)cc2n2c(=O)n(Cc3ccc(Cl)cc3)nc12`, the activity change, negative = inhibition in assay [1] was 3.38%; in assay [2] it was 2.5%; in assay [3], 8.75%; in assay [4], 1.17%; in assay [5], 6.31%.

Consider `COc1cc2c(cc1CN1CCCC(O)(CN(C)C)C1)OCCCO2` (stereo not given), for which the activity change, negative = inhibition in assay [1] is 0.371%; in assay [2], 0.894%; in assay [3], 1.2%; in assay [4], -4.79%; in assay [5], 2.23%.

In the case of `O=S(=O)(NC1CCCc2ccccc21)c1ccc2[nH]c3c(c2c1)CCCC3` (stereo not given), the activity change, negative = inhibition in assay [1] is 5.59%; in assay [2], 2.96%; in assay [3], 2.27%; in assay [4], -0.524%; in assay [5] it was 2%.

Consider `CSCC[C@@H]1NC(=O)c2cc(NC(=O)c3ccc(-n4cnnn4)cc3)ccc2NC1=O`, for which the activity change, negative = inhibition is -6.48% in assay [1]; 0.708% in assay [2]; -1.09% in assay [3]; -2.48% in assay [4]; -5.05% in assay [5].

For the molecule `Cc1nc(C(=O)N2CC[C@H](NC(=O)c3cnccn3)C[C@H]2C(=O)N[C@@H](Cc2cccs2)C(N)=O)cs1`, the activity change, negative = inhibition in assay [1] was -0.239%; in assay [2], -1.24%; in assay [3], 0.103%; in assay [4], -0.847%; in assay [5], -1.66%.

Consider `CC(C)C[C@H]1C(=O)N2CCC[C@H]2[C@]2(O)O[C@](NC(=O)[C@@H]3C=C4c5cccc6[nH]c(Br)c(c56)C[C@H]4N(C)C3)(C(C)C)C(=O)N12`, for which the activity change, negative = inhibition in assay [1] was -42.7%; in assay [2] it was 0.318%; in assay [3], 1.14%; in assay [4] it was -11.9%; in assay [5], -30.1%.

In the case of `O=C(CCc1nnc2n(CCc3ccccc3)c(=O)c3ccccc3n12)N1CCN(c2ccccc2)CC1`, the activity change, negative = inhibition is -7.15% in assay [1]; 4.35% in assay [2]; 1.08% in assay [3]; -31.6% in assay [4]; -3.93% in assay [5].

Consider `O=C(CCc1nnc2n(CCc3ccccc3)c(=O)c3ccccc3n12)NC1CC1`, for which the activity change, negative = inhibition in assay [1] is -5.83%; in assay [2], 6.55%; in assay [3] it was -2.21%; in assay [4], 1.68%; in assay [5], -7.02%.

In the case of `CC(/C=C/C=C(\C)C(=O)O[C@@H]1O[C@H](CO[C@@H]2O[C@H](CO)[C@@H](O)[C@H](O)[C@H]2O)[C@@H](O)[C@H](O)[C@H]1O)=C\C=C\C=C(C)\C=C\C=C(/C)C(=O)O[C@@H]1C[C@](O)(C(=O)O)C[C@@H](O)[C@H]1OC(=O)/C=C/c1ccc(O)c(O)c1`, the activity change, negative = inhibition in assay [1] is -3.91%; in assay [2], 2.17%; in assay [3], 11.2%; in assay [4] it was -8.76%; in assay [5], -6.72%.

As for `O=C(NCCCn1ccnn1)c1cccc(S(=O)(=O)N2CCOCC2)c1`, the activity change, negative = inhibition is -3.84% in assay [1]; -4.18% in assay [2]; -1.46% in assay [3]; -9.32% in assay [4]; -5.76% in assay [5].

Take `O=C(N[C@@H]1CN(C(=O)c2[nH]nc3c2CCc2ccccc2-3)CC[C@@H]1CO)c1ccccc1`: the activity change, negative = inhibition in assay [1] was -17%; in assay [2], -0.287%; in assay [3] it was 1.1%; in assay [4], -4.06%; in assay [5] it was -9.1%.

For the molecule `COC(=O)N1CCC2(CC1)C(=O)NN=C2c1ccncc1`, the activity change, negative = inhibition in assay [1] was -2.16%; in assay [2] it was -5.99%; in assay [3] it was 0.374%; in assay [4], -3.37%; in assay [5], -3.12%.

Consider `CCCN1C(=O)c2cc(C(=O)NCc3ccc(OC)cc3OC)nn2CC1(C)C(=O)NC1CCCC1` (stereo not given), for which the activity change, negative = inhibition in assay [1] was 0.79%; in assay [2] it was 2.13%; in assay [3], -4.99%; in assay [4], 1.79%; in assay [5] it was 0.924%.

Regarding `Cc1ccc(CN2C(=O)c3nc4ccccc4n3CC2(C)C(=O)NCc2ccccc2)o1` (stereo not given), the activity change, negative = inhibition in assay [1] was found to be 2.9%; in assay [2], 1.99%; in assay [3] it was 4.62%; in assay [4], 5.31%; in assay [5], 2.86%.

Take `CCN(CC)c1cc(CCC(=O)NCCc2ccccn2)ccn1`: the activity change, negative = inhibition in assay [1] is -2.52%; in assay [2], 1.63%; in assay [3], -39.6%; in assay [4], -2.41%; in assay [5] it was 12.5%.

For the molecule `COc1ccc(-c2cc(C(=O)NCc3c(C)cc(C)[nH]c3=O)c3c(c2)N(C)CCO3)cn1`, the activity change, negative = inhibition is -14.7% in assay [1]; -9.84% in assay [2]; -24.1% in assay [3]; -14.1% in assay [4]; -5.64% in assay [5].

For `Cc1ccccc1C(OCCN(C)C)c1ccccc1` (stereo not given), the activity change, negative = inhibition in assay [1] was 9.46%; in assay [2], 13.9%; in assay [3], -21.3%; in assay [4], -8.27%; in assay [5], -1.17%.

Regarding `Cc1cc(C)cc(NS(=O)(=O)c2cc3[nH]c(=O)[nH]c3cc2C)c1`, the activity change, negative = inhibition in assay [1] is 4.07%; in assay [2] it was 0%; in assay [3], 3.02%; in assay [4] it was -3.93%; in assay [5], -5.57%.

`CC1(C)CC[C@]2(C(=O)O)CC[C@]3(C)C(=CCC4[C@@]5(C)CCC(O[C@@H]6OC[C@H](O)[C@H](O)[C@H]6O[C@@H]6O[C@H](CO)[C@@H](O)[C@H](O)[C@H]6O)[C@@](C)(CO)C5CC[C@]43C)[C@@H]2C1` (stereo not given in full): the activity change, negative = inhibition in assay [1] is 3.28%; in assay [2], 1.87%; in assay [3], 10.8%; in assay [4], -10.9%; in assay [5], 1.83%.

Turning to `CCOC(=O)c1cc2n(n1)CC(C)(C(=O)NC1CCC(C)CC1)N(Cc1ccc3c(c1)OCO3)C2=O` (stereo not given), the activity change, negative = inhibition was 0.652% in assay [1]; 0% in assay [2]; 0.891% in assay [3]; -3.57% in assay [4]; -0.097% in assay [5].

Turning to `O=C1CN(Cc2ccc(Cl)cc2)CCN1c1ccc(Cl)nn1`, the activity change, negative = inhibition in assay [1] was -4.69%; in assay [2] it was -2.28%; in assay [3], -2.81%; in assay [4], -5.93%; in assay [5], -6.25%.

For `COC(=O)c1cccc(Nc2ncnc3ccc(C)cc23)c1`, the activity change, negative = inhibition is -7.98% in assay [1]; 0% in assay [2]; 3.31% in assay [3]; 4.1% in assay [4]; -1.81% in assay [5].

Consider `CC(=O)OC1/C(C)=C/C(=O)C(OC(C)=O)C(C)(C)/C=C/C(C)C(=O)C2(OC(C)=O)CC(C)C(OC(=O)c3ccccc3)C12` (stereo not given), for which the activity change, negative = inhibition in assay [1] is 0%; in assay [2], -0.437%; in assay [3], 1.88%; in assay [4], -12.7%; in assay [5], 1.99%.

As to `C=C1C(=O)OC2CC3(C)C(CC12)C(C)=CC(O)C3OC(C)=O` (stereo not given), the activity change, negative = inhibition in assay [1] is -0.37%; in assay [2], 1.31%; in assay [3], 9.87%; in assay [4] it was -10.2%; in assay [5], 3.37%.

Take `CNCc1cc(-c2ccccc2F)n(S(=O)(=O)c2cccnc2)c1`: the activity change, negative = inhibition is -3.79% in assay [1]; 0.135% in assay [2]; 2.98% in assay [3]; -12.2% in assay [4]; 0.056% in assay [5].

In the case of `Cc1cc2c(cc3n2CC(C)(C(=O)NC2CCCCCC2)N(c2cccc(C)c2C)C3=O)o1` (stereo not given), the activity change, negative = inhibition is -0.776% in assay [1]; 2.65% in assay [2]; 1.52% in assay [3]; 6.18% in assay [4]; 1.09% in assay [5].
